Measurements reported in the supplement of paper PMC4604168 (melanoma cell lines).
The list shows a part of the results. Single values are uncertain, as repeats are few or missing.

These compounds were tested on WM3526 (assay: cell count relative to DMSO control; melanoma cells; higher = more viable cells). Details: library dose: low library concentration; 72 h.
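Note: cell number obtained by counting DAPI-stained nuclei in high-throughput microscope images with image analysis software, screen run in 1,536-well plates.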

Compound | cell count [%]
CC[C@]1(O)C[C@H]2CN(CCc3c([nH]c4ccccc34)[C@@](C(=O)OC)(c3cc4c(cc3OC)N(C=O)[C@H]3[C@@](O)(C(=O)OC)[C@H](OC(C)=O)[C@]5(CC)C=CCN6CC[C@]43[C@@H]65)C2)C1 [vincristine] + CS(=O)(=O)c1ccc(C(=O)Nc2ccc(Cl)c(-c3ccccn3)c2)c(Cl)c1 [vismodegib] (first compound 0.0001 µM, partner dose 1 µM) | 86
CC[C@]1(O)C[C@H]2CN(CCc3c([nH]c4ccccc34)[C@@](C(=O)OC)(c3cc4c(cc3OC)N(C=O)[C@H]3[C@@](O)(C(=O)OC)[C@H](OC(C)=O)[C@]5(CC)C=CCN6CC[C@]43[C@@H]65)C2)C1 [vincristine] + CN(NC(=O)CC(=O)NN(C)C(=S)c1ccccc1)C(=S)c1ccccc1 [STA4783] (first compound 0.0001 µM, partner dose 0.006 µM) | 50.1
N#CC[C@H](C1CCCC1)n1cc(-c2ncnc3[nH]ccc23)cn1 [ruxolitinib] + O=C(CCCCCCC(=O)Nc1ccccc1)NO [vorinostat] (first compound 1 µM, partner dose 0.08 µM) | 106
CC[C@]1(O)C[C@H]2CN(CCc3c([nH]c4ccccc34)[C@@](C(=O)OC)(c3cc4c(cc3OC)N(C=O)[C@H]3[C@@](O)(C(=O)OC)[C@H](OC(C)=O)[C@]5(CC)C=CCN6CC[C@]43[C@@H]65)C2)C1 [vincristine] + Cc1cn(-c2cc(NC(=O)c3ccc(C)c(Nc4nccc(-c5cccnc5)n4)c3)cc(C(F)(F)F)c2)cn1 [nilotinib] (first compound 0.0001 µM, partner dose 0.2 µM) | 68.8
